# Some of the results follow.
# Key:
# Assay in all cases: glycan array binding signal (z-score within array); higher = stronger binding
# Conditions in all cases: glycan notation: IUPAC condensed, linker removed
# [1] = biological target: Fuc(a1-2)Gal
# In short: (§1)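 Glycan array data came from 3228 arrays in the Consortium for Functional Glycomics database, and only arrays with an available protein sequence were kept. Glycan names were put into IUPAC-condensed notation, and columns mapping to the same glycan were averaged. The binding signal is a within-array Z-score, averaged across arrays of one protein sequence run at different concentrations or buffers and across linkers. A negative Z-score can be read as non-binding.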
# [2] = biological target: Fuc(a1-2)Gal(b1-3)GalNAc
# In short: as §1
# [3] = biological target: Fuc(a1-2)Gal(b1-3)GalNAc(a1-3)[Fuc(a1-2)]Gal(b1-4)Glc
# In short: as §1
# [4] = biological target: Fuc(a1-2)Gal(b1-3)GalNAc(a1-3)[Fuc(a1-2)]Gal(b1-4)GlcNAc
# In short: as §1
# [5] = biological target: Fuc(a1-2)Gal(b1-3)GalNAc(b1-3)Gal
# In short: as §1
# [6] = biological target: Fuc(a1-2)Gal(b1-3)GalNAc(b1-3)Gal(a1-4)Gal(b1-4)Glc
# In short: as §1
# [7] = biological target: Fuc(a1-2)Gal(b1-3)GalNAc(b1-4)[Neu5Ac(a2-3)]Gal(b1-4)Glc
# In short: as §1
# [8] = biological target: Fuc(a1-2)Gal(b1-3)GlcNAc
# In short: as §1
# [9] = biological target: Fuc(a1-2)Gal(b1-3)GlcNAc(b1-2)Man(a1-3)[Fuc(a1-2)Gal(b1-3)GlcNAc(b1-2)Man(a1-6)]Man(b1-4)GlcNAc(b1-4)GlcNAc
# In short: as §1
# [10] = biological target: Fuc(a1-2)Gal(b1-3)GlcNAc(b1-2)Man(a1-3)[Fuc(a1-2)Gal(b1-3)GlcNAc(b1-2)Man(a1-6)]Man(b1-4)GlcNAc(b1-4)[Fuc(a1-6)]GlcNAc
# In short: as §1
# [11] = biological target: Fuc(a1-2)Gal(b1-3)GlcNAc(b1-3)Gal(b1-4)Glc
# In short: as §1
# [12] = biological target: Fuc(a1-2)Gal(b1-3)GlcNAc(b1-3)GalNAc
# In short: as §1
# [13] = biological target: Fuc(a1-2)Gal(b1-3)GlcNAc(b1-3)[Fuc(a1-2)Gal(b1-3)GlcNAc(b1-6)]GalNAc
# In short: as §1
# [14] = biological target: Fuc(a1-2)Gal(b1-3)GlcNAc(b1-3)[Fuc(a1-3)[Gal(b1-4)]GlcNAc(b1-6)]Gal(b1-4)Glc
# In short: as §1
# [15] = biological target: Fuc(a1-2)Gal(b1-3)GlcNAc(b1-3)[Gal(b1-4)GlcNAc(b1-6)]Gal(b1-4)Glc
# In short: as §1
# [16] = biological target: Fuc(a1-2)Gal(b1-3)GlcNAc(b1-3)[Neu5Ac(a2-6)Gal(b1-4)GlcNAc(b1-6)]Gal(b1-4)Glc
# In short: as §1
# [17] = biological target: Fuc(a1-2)Gal(b1-3)GlcNAc6S
# In short: as §1
# [18] = biological target: Fuc(a1-2)Gal(b1-3)[Fuc(a1-4)]GlcNAc
# In short: as §1
# [19] = biological target: Fuc(a1-2)Gal(b1-3)[Fuc(a1-4)]GlcNAc(b1-2)Man(a1-3)[Fuc(a1-2)Gal(b1-3)[Fuc(a1-4)]GlcNAc(b1-2)Man(a1-6)]Man(b1-4)GlcNAc(b1-4)GlcNAc
# In short: as §1
# [20] = biological target: Fuc(a1-2)Gal(b1-3)[Fuc(a1-4)]GlcNAc(b1-2)Man(a1-6)[Fuc(a1-2)Gal(b1-3)[Fuc(a1-4)]GlcNAc(b1-2)Man(a1-3)]Man(b1-4)GlcNAc(b1-4)[Fuc(a1-6)]GlcNAc
# In short: as §1
# [21] = biological target: Fuc(a1-2)Gal(b1-3)[Fuc(a1-4)]GlcNAc(b1-3)[Fuc(a1-3)[Gal(b1-4)]GlcNAc(b1-6)]Gal(b1-4)Glc
# In short: as §1
# [22] = biological target: Fuc(a1-2)Gal(b1-3)[Fuc(a1-4)]GlcNAc(b1-3)[Gal(b1-4)GlcNAc(b1-6)]Gal(b1-4)Glc
# In short: as §1
# [23] = biological target: Fuc(a1-2)Gal(b1-4)Glc
# In short: as §1
# [24] = biological target: Fuc(a1-2)Gal(b1-4)Glc6S
# In short: as §1
# [25] = biological target: Fuc(a1-2)Gal(b1-4)GlcNAc
# In short: as §1
# [26] = biological target: Fuc(a1-2)Gal(b1-4)GlcNAc(b1-2)Man
# In short: as §1
# [27] = biological target: Fuc(a1-2)Gal(b1-4)GlcNAc(b1-2)Man(a1-3)[Fuc(a1-2)Gal(b1-4)GlcNAc(b1-2)Man(a1-6)]Man(b1-4)GlcNAc(b1-4)GlcNAc
# In short: as §1
# [28] = biological target: Fuc(a1-2)Gal(b1-4)GlcNAc(b1-2)Man(a1-3)[Fuc(a1-2)Gal(b1-4)GlcNAc(b1-2)Man(a1-6)]Man(b1-4)GlcNAc(b1-4)[Fuc(a1-6)]GlcNAc
# In short: as §1
# [29] = biological target: Fuc(a1-2)Gal(b1-4)GlcNAc(b1-2)[Fuc(a1-2)Gal(b1-4)GlcNAc(b1-4)]Man(a1-3)[Fuc(a1-2)Gal(b1-4)GlcNAc(b1-2)Man(a1-6)]Man(b1-4)GlcNAc(b1-4)GlcNAc
# In short: as §1
# [30] = biological target: Fuc(a1-2)Gal(b1-4)GlcNAc(b1-3)Gal(b1-4)GlcNAc
# In short: as §1
# [31] = biological target: Fuc(a1-2)Gal(b1-4)GlcNAc(b1-3)Gal(b1-4)GlcNAc(b1-3)Gal(b1-4)GlcNAc
# In short: as §1
# [32] = biological target: Fuc(a1-2)Gal(b1-4)GlcNAc(b1-3)GalNAc
# In short: as §1
# [33] = biological target: Fuc(a1-2)Gal(b1-4)GlcNAc(b1-3)[Fuc(a1-2)Gal(b1-4)GlcNAc(b1-6)]GalNAc
# In short: as §1
# [34] = biological target: Fuc(a1-2)Gal(b1-4)GlcNAc(b1-6)GalNAc
# In short: as §1
# [35] = biological target: Fuc(a1-2)Gal(b1-4)GlcNAc6S
# In short: as §1
# [36] = biological target: Fuc(a1-2)Gal(b1-4)[Fuc(a1-3)]GlcNAc
# In short: as §1
# [37] = biological target: Fuc(a1-2)Gal(b1-4)[Fuc(a1-3)]GlcNAc(b1-2)Man(a1-3)[Fuc(a1-2)Gal(b1-4)[Fuc(a1-3)]GlcNAc(b1-2)Man(a1-6)]Man(b1-4)GlcNAc(b1-4)GlcNAc
# In short: as §1
binder,measurement,setting,value
SalT (Orysata sativa) (protein) MTLVKIGLWGGNGGSAQDISVPPKKLLGVTIYSSDAIRSIAFNYIGVDGQEYAIGPWGGGEGTSTEIKLGSSEHIKEISGTHGPVYDLADIVTYLKIVTSANNTYEAGVPNGKEFSIPLQDSGHVVGFFGRSGTLIDAIGIYVHPILEQKLISEEDLNSAVDHHHHHH,glycan array binding signal (z-score),[1],-0.311
same,glycan array binding signal (z-score),[2],-0.283
same,glycan array binding signal (z-score),[3],-0.306
same,glycan array binding signal (z-score),[4],-0.31
same,glycan array binding signal (z-score),[5],-0.309
same,glycan array binding signal (z-score),[6],-0.31
same,glycan array binding signal (z-score),[7],-0.308
same,glycan array binding signal (z-score),[8],-0.309
same,glycan array binding signal (z-score),[9],0.438
same,glycan array binding signal (z-score),[10],-0.198
same,glycan array binding signal (z-score),[11],-0.31
same,glycan array binding signal (z-score),[12],-0.309
same,glycan array binding signal (z-score),[13],-0.301
same,glycan array binding signal (z-score),[14],-0.308
same,glycan array binding signal (z-score),[15],-0.311
same,glycan array binding signal (z-score),[16],-0.309
same,glycan array binding signal (z-score),[17],-0.303
same,glycan array binding signal (z-score),[18],-0.304
same,glycan array binding signal (z-score),[19],-0.263
same,glycan array binding signal (z-score),[20],-0.284
same,glycan array binding signal (z-score),[21],-0.307
same,glycan array binding signal (z-score),[22],-0.294
same,glycan array binding signal (z-score),[23],-0.306
same,glycan array binding signal (z-score),[24],-0.293
same,glycan array binding signal (z-score),[25],-0.305
same,glycan array binding signal (z-score),[26],-0.309
same,glycan array binding signal (z-score),[27],2.62
same,glycan array binding signal (z-score),[28],0.28
same,glycan array binding signal (z-score),[29],-0.246
same,glycan array binding signal (z-score),[30],-0.31
same,glycan array binding signal (z-score),[31],-0.305
same,glycan array binding signal (z-score),[32],-0.307
same,glycan array binding signal (z-score),[33],-0.301
same,glycan array binding signal (z-score),[34],-0.303
same,glycan array binding signal (z-score),[35],-0.308
same,glycan array binding signal (z-score),[36],-0.308
same,glycan array binding signal (z-score),[37],-0.18
